Test results from article PMC4336329 (PLoS ONE, 2015).
In all, about 310,000 compounds went through this assay and about 2,200 (0.71%) showed an effect of 50% or more. The effect is printed as a negative number. The list shows a part of the results.

Molecular target: human ether-à-go-go-related gene (hERG) potassium channel (human, UniProt Q12809)
Assay: primary screen, population patch clamp on CHO cells stably expressing hERG

Sequence of human ether-à-go-go-related gene (hERG) potassium channel (Q12809 whole entry, looked up): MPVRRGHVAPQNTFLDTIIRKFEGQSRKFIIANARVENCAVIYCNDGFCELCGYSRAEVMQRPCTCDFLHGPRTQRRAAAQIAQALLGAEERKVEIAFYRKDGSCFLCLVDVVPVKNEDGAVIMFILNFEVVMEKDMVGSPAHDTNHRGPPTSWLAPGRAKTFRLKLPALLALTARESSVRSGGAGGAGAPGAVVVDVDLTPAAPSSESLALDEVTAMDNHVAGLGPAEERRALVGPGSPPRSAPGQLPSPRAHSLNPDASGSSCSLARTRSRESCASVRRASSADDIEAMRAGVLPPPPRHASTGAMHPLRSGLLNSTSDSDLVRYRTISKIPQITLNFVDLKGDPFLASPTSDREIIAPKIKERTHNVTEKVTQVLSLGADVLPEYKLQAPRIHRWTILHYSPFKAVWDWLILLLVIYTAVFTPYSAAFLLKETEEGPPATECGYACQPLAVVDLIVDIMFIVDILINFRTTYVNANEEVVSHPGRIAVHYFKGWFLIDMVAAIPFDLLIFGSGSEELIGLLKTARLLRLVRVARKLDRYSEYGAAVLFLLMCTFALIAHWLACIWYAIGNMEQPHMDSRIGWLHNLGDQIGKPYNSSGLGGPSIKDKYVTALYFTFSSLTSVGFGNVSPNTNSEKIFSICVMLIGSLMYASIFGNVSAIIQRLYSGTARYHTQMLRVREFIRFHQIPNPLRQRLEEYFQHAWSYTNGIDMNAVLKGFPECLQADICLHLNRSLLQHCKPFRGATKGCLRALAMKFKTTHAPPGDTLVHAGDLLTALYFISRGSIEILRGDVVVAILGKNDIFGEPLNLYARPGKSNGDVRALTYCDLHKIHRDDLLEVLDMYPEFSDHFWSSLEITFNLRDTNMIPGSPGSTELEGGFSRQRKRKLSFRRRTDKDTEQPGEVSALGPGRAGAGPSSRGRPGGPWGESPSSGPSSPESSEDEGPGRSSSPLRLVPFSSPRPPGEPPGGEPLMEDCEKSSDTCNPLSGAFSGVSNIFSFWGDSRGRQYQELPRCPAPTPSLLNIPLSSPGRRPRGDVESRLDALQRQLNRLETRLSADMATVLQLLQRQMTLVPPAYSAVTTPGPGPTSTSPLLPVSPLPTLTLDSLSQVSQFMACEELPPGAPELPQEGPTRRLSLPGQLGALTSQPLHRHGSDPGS

Going from `Cn1nc(C(C)(C)C)c([N+](=O)[O-])c1C(N)=O` to `Cc1n[nH]c(C)c1CCC(=O)N/N=C/c1cccc([N+](=O)[O-])c1`, the “hERG current change (%, negative = inhibition) at 1uM” value falls from 10.1% to 7.51%.

Going from `O=S(=O)(Nc1cccc(-c2nnco2)c1)c1ccc(Cl)cc1` to `O=C(O)c1cccc(S(=O)(=O)Nc2ccc(S(=O)(=O)N3CCOCC3)cc2)c1`, the “hERG current change (%, negative = inhibition) at 1uM” value falls from 6.96% to 6.15%.

Compared with `CC1CC(C)CN(CCOCCSc2ccc(Cl)cc2)C1.O=C(O)C(=O)O` (stereo not shown), `CC(=O)/C(N=Nc1ccc(C(=O)O)cc1)=C(\C)O` is higher in “hERG current change (%, negative = inhibition) at 1uM” value: -11.6% for the first, -5.31% for the second.

Compared with `COCc1nc2ccccc2n1Cc1c(F)cccc1Cl`, `CC(=O)NC(C)c1nc2ccccc2n1Cc1ccccc1F` (stereo not shown) is lower in “hERG current change (%, negative = inhibition) at 1uM” value: 6.84% for the first, 4.02% for the second.

Going from `Nc1c(C(=O)C2CC2)sc2nc3c(cc12)CCC3` to `CNC(=O)COC(=O)c1c2c(nc3ccccc13)CCC2`, the “hERG current change (%, negative = inhibition) at 1uM” value rises from 3.7% to 9.55%.

Compared with `COc1ccc(C(=O)NCC(O)CN2CCOCC2)cc1[N+](=O)[O-]` (stereo not shown), `c1ccc(CCCN2CCOCC2)cc1` is higher in “hERG current change (%, negative = inhibition) at 1uM” value: 10.8% for the first, 22.1% for the second.

Going from `O=C(NCc1cccc2ccsc12)c1cccs1` to `CCOc1ccc2nc(NC(=O)Cc3cccs3)sc2c1`, the “hERG current change (%, negative = inhibition) at 1uM” value falls from 14.9% to 6.15%.

First: O=C(Nc1ccccc1O)C(c1ccccc1)c1ccccc1
Second: COc1ccccc1C(=O)Oc1ccccc1C(=O)Nc1ccccc1
The “hERG current change (%, negative = inhibition) at 1uM” value of the first is lower: 5.5% for the first, 30.5% for the second.

First: O=c1oc2ccccc2c(Nc2cc3ccccc3cc2O)c1[N+](=O)[O-]
Second: Cc1nc2ccccc2c(=O)n1CCc1ccccc1
The “hERG current change (%, negative = inhibition) at 1uM” value of the first is lower: 12.5% for the first, 13.1% for the second.

Compared with `CCn1cc(S(=O)(=O)Nc2cc(C)ccc2F)cn1`, `COc1ccc(C)cc1NC(=O)C1CCN(C(=O)Cc2ccccc2)CC1` is lower in “hERG current change (%, negative = inhibition) at 1uM” value: 10.5% for the first, 6.6% for the second.

Compared with `COc1ccc(NC(=O)CN(C)C(=O)CCNC(=O)c2ccccc2OC)cc1`, `COc1ccc(OC)c(-n2c(SCC(=O)Nc3cccc(S(N)(=O)=O)c3)nc3ccccc3c2=O)c1` is lower in “hERG current change (%, negative = inhibition) at 1uM” value: 12.3% for the first, -6.71% for the second.

Compared with `O=c1[nH]c(C2CCN(S(=O)(=O)c3ccccc3C(F)(F)F)CC2)nc2c1nnn2Cc1ccccc1`, `O=C(O)c1cc(-n2nnnc2SCc2ccccc2F)ccc1Cl` is higher in “hERG current change (%, negative = inhibition) at 1uM” value: 0.439% for the first, 11.1% for the second.

Going from `Cc1cc(-c2ccccc2)nc(Oc2ccc(C(C)(C)C)cc2)c1S(C)(=O)=O` to `NNC(=O)c1c[nH]c2ccc(OCc3ccccc3)cc12`, the “hERG current change (%, negative = inhibition) at 1uM” value falls from 14.8% to 10.4%.

Compared with `c1ccc(N2CCN(c3ncnc4sc5c(c34)CCC5)CC2)cc1`, `O=C(Nc1ccc(N2CCN(C(=O)c3cccs3)CC2)cc1)c1ccccc1Cl` is higher in “hERG current change (%, negative = inhibition) at 1uM” value: 13% for the first, 20.4% for the second.

First: Oc1c(Cl)cc(Cl)cc1C(C#Cc1ccccc1)N1CCOCC1 (stereo not shown)
Second: O=C(NC(=S)N1CCCC1)c1ccc(Cl)cc1Cl
The “hERG current change (%, negative = inhibition) at 1uM” value of the first is lower: 5.55% for the first, 8.74% for the second.

First: C[n+]1c(/C=C/c2ccc3c(c2)OCO3)ccc2ccccc21.[I-]
Second: Cc1ccc(-n2c(O)c(/C=N/NC(=O)C3COc4ccccc4O3)c3ccccc3c2=O)cc1 (stereo not shown)
The “hERG current change (%, negative = inhibition) at 1uM” value of the first is higher: 24.8% for the first, -2.19% for the second.

Going from `COCC(=O)N1CCC(Oc2ccc(C(=O)N(C)C(C)c3ccon3)cc2)CC1` (stereo not shown) to `COc1cc(CC(NC(C)=O)C(=O)NC2CCN(S(=O)(=O)c3ccc(NC(C)=O)cc3)CC2)cc(OC)c1` (stereo not shown), the “hERG current change (%, negative = inhibition) at 1uM” value rises from 17.8% to 21.1%.

Going from `Cc1nnsc1C(=O)Nc1ccc(S(=O)(=O)N2CCCC(C)C2)cc1` (stereo not shown) to `COc1ccc(S(=O)(=O)N2CCCCC2)cc1NC(=S)Nc1cccc(Cl)c1C`, the “hERG current change (%, negative = inhibition) at 1uM” value falls from 15.2% to 2.35%.

Compared with `O=C(CCSCc1cccc(Cl)c1)NCCC1=CCCCC1`, `CC1(C)Cc2c(cnn2-c2ccc(F)cc2)C(NC(=O)CCN2CCCC2=O)C1` (stereo not shown) is higher in “hERG current change (%, negative = inhibition) at 1uM” value: -4.79% for the first, 11.7% for the second.

Compared with `C[C@H]1CCC[C@@]2(O[C@H](CCO)C[C@@H](O)[C@@H]2O)O1`, `NC1=NC[C@@H](Cc2ccc(O)cc2)N1CCC12CC3CC(CC(C3)C1)C2` is lower in “hERG current change (%, negative = inhibition) at 1uM” value: 18.5% for the first, 10.4% for the second.

Going from `C=CCn1c(C(C)C)nc2ccccc21.Cl` to `CC(C)CC(C)NNC(=O)c1cc2ccccc2[nH]1` (stereo not shown), the “hERG current change (%, negative = inhibition) at 1uM” value falls from 15.4% to 11.9%.

First: Cc1noc(C)c1COc1cccc(C(=O)OCC(=O)NCCN2C(=O)CSC2=O)c1
Second: Cn1c(=O)c2c(nc(NCCO)n2CCCc2ccccc2)n(C)c1=O
The “hERG current change (%, negative = inhibition) at 1uM” value of the first is lower: -0.418% for the first, 9.89% for the second.

Compared with `CC(C)CCc1noc(CN2CCC(C(=O)N3CCOCC3)CC2)n1`, `CCN1CCN(C(=S)Nc2ccc3nc4n(c(=O)c3c2)CCCCC4)CC1` is higher in “hERG current change (%, negative = inhibition) at 1uM” value: 7% for the first, 7.5% for the second.

Compared with `COc1ccc(NC(C)=O)cc1S(=O)(=O)NCCc1ccccn1`, `Cc1ccn2c(NC3CCCC3)c(-c3ccccn3)nc2c1` is higher in “hERG current change (%, negative = inhibition) at 1uM” value: 5.7% for the first, 11.2% for the second.

First: CC(C)Oc1ccc(C2(C#N)CC[N+](C)(C)CC2)cc1.[Br-]
Second: COc1ccc(Nc2ncc(F)c(N3CCOCC3)n2)cc1
The “hERG current change (%, negative = inhibition) at 1uM” value of the first is lower: 8.79% for the first, 15.9% for the second.

First: CC(=O)c1ccc(N2CCN(CC(O)COC(c3ccccc3)c3ccccc3)CC2)cc1 (stereo not shown)
Second: N#CCCN(NC1=NS(=O)(=O)c2ccccc21)C(=O)c1ccccc1Br
The “hERG current change (%, negative = inhibition) at 1uM” value of the first is lower: -12.5% for the first, -1.57% for the second.

First: C=CCNC(=O)c1cc2sccc2n1C
Second: O=C1COc2ccc(C(=O)NC3CC3)cc2N1
The “hERG current change (%, negative = inhibition) at 1uM” value of the first is lower: 7.53% for the first, 11.6% for the second.

Going from `CCCS(=O)(=O)c1nc(S(=O)(=O)c2ccc(C)cc2)c(N2CCOCC2)s1` to `CCCSc1nc2c(cnn2-c2ccccc2)c(=O)[nH]1`, the “hERG current change (%, negative = inhibition) at 1uM” value falls from 24.5% to 6.83%.

First: CCCC1CC(C#N)N(N(C)C)C1=C(C#N)C#N (stereo not shown)
Second: CCOc1ccc(/C=N/Nc2nc(=O)[nH]nc2C)cc1OC
The “hERG current change (%, negative = inhibition) at 1uM” value of the first is lower: -0.895% for the first, -0.682% for the second.
